Experimental findings from PMC5515408 are described below.

The list shows a part of the results. At the low end of the ranking, values are background and their order means little.

The test system of this experiment is MYC (p64) + MAX (p21), in MYC:MAX. Put plainly: protein-binding microarray (anti-MAX antibody). The conditions noted are these: PBM: 15 mM Tris-HCl pH 7.5, 100 mM KCl, 0.075% NP40, 7.5 mM beta-mercaptoethanol, 375 ng/ul BSA, 8 ng/ul poly(dA-dT):(dA-dT), 550 ng complex, 60 min, room …; high values mean tight binding; double strand, one strand shown; sequences stand for … in CCGGC…TTAATAGCTAAGATTACTATATCGACG
Take TGACCTCAGGTA: the binding signal (log2 normalized fluorescence) is 0.101.

Regarding CGTCACGTGGTT, the binding signal (log2 normalized fluorescence) worked out at 0.74.

Consider TGATGTATAGTA, for which the binding signal (log2 normalized fluorescence) was 0.0515.

TGATCTCGTGTA: the binding signal (log2 normalized fluorescence) came to 0.41.

Take TGAGGCCGGGTA: the binding signal (log2 normalized fluorescence) was -0.114.

For the sequence TGACTGAGCGTA, the binding signal (log2 normalized fluorescence) is 0.00564.

On to TGATTCTATGTA, for which the binding signal (log2 normalized fluorescence) is -0.0824.

On to TGACGTACGGTA, for which the binding signal (log2 normalized fluorescence) is 0.112.

Turning to TGACAGCTGGTA, the binding signal (log2 normalized fluorescence) came to 0.223.

Turning to TGAACTGCGGTA, the binding signal (log2 normalized fluorescence) worked out at 0.0357.

For the sequence TGATCTGCAGTA, the binding signal (log2 normalized fluorescence) is -0.109.

On to TGATGACTTGTA, for which the binding signal (log2 normalized fluorescence) stood at 0.195.

As for TGACAATGGGTA, the binding signal (log2 normalized fluorescence) is 0.136.

Consider TGACTTGCGGTA, for which the binding signal (log2 normalized fluorescence) came out at 0.185.

For the sequence TGACTGCGTGTA, the binding signal (log2 normalized fluorescence) was found to be 0.238.

Consider TGACTAAATGTA, for which the binding signal (log2 normalized fluorescence) was 0.0225.

As to TGATTAATGGTA, the binding signal (log2 normalized fluorescence) was found to be 0.103.

As to TGATATGATGTA, the binding signal (log2 normalized fluorescence) came to 0.0577.

With TGACCAGGGGTA, the binding signal (log2 normalized fluorescence) turned out to be 0.0822.

TGACAGACAGTA: the binding signal (log2 normalized fluorescence) came out at 0.212.

Consider TGAAAGTTCGTA, for which the binding signal (log2 normalized fluorescence) is -0.253.

With TTACACATGATA, the binding signal (log2 normalized fluorescence) was 0.494.

For TGATCCGGTGTA, the binding signal (log2 normalized fluorescence) worked out at 0.0468.

With TGGCACGCGGTC, the binding signal (log2 normalized fluorescence) was 0.784.

For TGAAGACCGGTA, the binding signal (log2 normalized fluorescence) was found to be 0.156.

On to TGAACCCACGTA, for which the binding signal (log2 normalized fluorescence) is 0.15.

On to TACTATGCCATG, for which the binding signal (log2 normalized fluorescence) was found to be 0.159.

With TCAGACGTGGTA, the binding signal (log2 normalized fluorescence) is 0.391.

Turning to CGTCACGTGGTA, the binding signal (log2 normalized fluorescence) turned out to be 0.809.

With CACCGTCCTAGC, the binding signal (log2 normalized fluorescence) turned out to be 0.19.

On to TGAGACCGTGTA, for which the binding signal (log2 normalized fluorescence) was 0.0583.

On to AGACACGTGATA, for which the binding signal (log2 normalized fluorescence) came out at 0.851.

With TGACTCGTTGAA, the binding signal (log2 normalized fluorescence) was 0.199.

Take TGAGGCCCTGTA: the binding signal (log2 normalized fluorescence) was -0.0678.

Consider CGACACGTGCTT, for which the binding signal (log2 normalized fluorescence) was found to be 0.852.

As to TGAACGTCGGTA, the binding signal (log2 normalized fluorescence) came out at 0.0849.

On to TGTCACGTGGTA, for which the binding signal (log2 normalized fluorescence) amounted to 0.706.

As to TGAAGAATGGTA, the binding signal (log2 normalized fluorescence) came out at 0.0608.

Take TGACGGATTGTA: the binding signal (log2 normalized fluorescence) is -0.0678.

On to TGATTAGCGGTA, for which the binding signal (log2 normalized fluorescence) is -0.0877.

Regarding TTGGTGTACACT, the binding signal (log2 normalized fluorescence) came to 0.328.

Turning to TGAGAAGAGGTA, the binding signal (log2 normalized fluorescence) was -0.0553.

In the case of TGACGACGTGTA, the binding signal (log2 normalized fluorescence) worked out at 0.332.

As for TGATAAACCGTA, the binding signal (log2 normalized fluorescence) worked out at 0.086.

In the case of TGAAAAGATGTA, the binding signal (log2 normalized fluorescence) is -0.0584.

With TGAATGCGAGTA, the binding signal (log2 normalized fluorescence) was determined as 0.339.

As for TGATGCGACGTA, the binding signal (log2 normalized fluorescence) worked out at 0.209.

In the case of TGAGCCCTGGTA, the binding signal (log2 normalized fluorescence) worked out at 0.0851.

Take TGAGACGGGGTC: the binding signal (log2 normalized fluorescence) turned out to be 0.233.

In the case of TGACAAGCTGTA, the binding signal (log2 normalized fluorescence) turned out to be 0.207.

Regarding TGAATCTATGTA, the binding signal (log2 normalized fluorescence) was -0.0794.

As to TGAACAATGGTA, the binding signal (log2 normalized fluorescence) was found to be 0.0607.

With TGATACGTGGTC, the binding signal (log2 normalized fluorescence) worked out at 0.408.

For TGATCCCGTGTA, the binding signal (log2 normalized fluorescence) was 0.193.

Turning to TGAGCTCGTGTA, the binding signal (log2 normalized fluorescence) was 0.336.

As to TGACACGTCGAA, the binding signal (log2 normalized fluorescence) worked out at 0.472.

Turning to TGATCCTGTGTA, the binding signal (log2 normalized fluorescence) came to 0.0933.

Consider TGAATCACTGTA, for which the binding signal (log2 normalized fluorescence) is 0.032.

Turning to TGACACGGGCTA, the binding signal (log2 normalized fluorescence) is 0.316.

On to TGATAATACGTA, for which the binding signal (log2 normalized fluorescence) is 0.217.

Regarding TGAAATGCAGTA, the binding signal (log2 normalized fluorescence) is 0.128.

Turning to TGACACGTGGGA, the binding signal (log2 normalized fluorescence) came out at 0.669.

For TGAGACAACGTA, the binding signal (log2 normalized fluorescence) turned out to be 0.0501.

TGAGCATAAGTA: the binding signal (log2 normalized fluorescence) came to 0.257.

As to ACTTAGGGGGGT, the binding signal (log2 normalized fluorescence) was determined as 0.686.

Regarding TGAAATATGGTA, the binding signal (log2 normalized fluorescence) was 0.0849.

On to TGATATACAGTA, for which the binding signal (log2 normalized fluorescence) is -0.169.

Regarding TGAATCGTGGTA, the binding signal (log2 normalized fluorescence) was 0.403.

Regarding TGACCATCGGTA, the binding signal (log2 normalized fluorescence) amounted to 0.229.

Take TGAAGAATAGTA: the binding signal (log2 normalized fluorescence) was -0.307.

For the sequence TGATGGAGCGTA, the binding signal (log2 normalized fluorescence) was 0.118.

Turning to TGAGGGATCGTA, the binding signal (log2 normalized fluorescence) came out at 0.0857.

On to TGAGCGGTTGTA, for which the binding signal (log2 normalized fluorescence) came out at 0.0749.

TGATTCGGAGTA: the binding signal (log2 normalized fluorescence) was -0.225.

As to TGAATCATAGTA, the binding signal (log2 normalized fluorescence) is -0.0174.

Regarding TGAGGGCGTGTA, the binding signal (log2 normalized fluorescence) turned out to be 0.27.

For TGATCAACCGTA, the binding signal (log2 normalized fluorescence) was -0.0564.

Take TGATGGGTCGTA: the binding signal (log2 normalized fluorescence) was found to be 0.0905.

For TTAAACGTGTTA, the binding signal (log2 normalized fluorescence) came out at 0.426.

In the case of TGAACTAGCGTA, the binding signal (log2 normalized fluorescence) is 0.0237.

As for TGACCGTCAGTA, the binding signal (log2 normalized fluorescence) was found to be 0.104.

For TGACGTGCGGTA, the binding signal (log2 normalized fluorescence) was determined as 0.451.

Turning to TGACGACATGTA, the binding signal (log2 normalized fluorescence) worked out at 0.297.

TGACCGTCTGTA: the binding signal (log2 normalized fluorescence) was found to be 0.169.

As for TGATCTGTTGTA, the binding signal (log2 normalized fluorescence) was -0.0552.

As for TGAAGTAAAGTA, the binding signal (log2 normalized fluorescence) was 0.000186.

Take GAACACGTGGTA: the binding signal (log2 normalized fluorescence) came to 0.76.

Regarding TGAGTAATCGTA, the binding signal (log2 normalized fluorescence) is -0.0224.

For the sequence TGAAGCGCGGTA, the binding signal (log2 normalized fluorescence) is 0.476.

For the sequence TGATCCCAGGTA, the binding signal (log2 normalized fluorescence) was found to be 0.0304.

As for TGACTCTCAGTA, the binding signal (log2 normalized fluorescence) was -0.0565.

Take TGACACGTTTTA: the binding signal (log2 normalized fluorescence) came to 0.512.

As for TGAAAGTAAGTA, the binding signal (log2 normalized fluorescence) was -0.144.

On to TGACATATTGTA, for which the binding signal (log2 normalized fluorescence) is 0.296.

For TGAGGGCAGGTA, the binding signal (log2 normalized fluorescence) was found to be 0.0191.

Regarding TGAAAGTTAGTA, the binding signal (log2 normalized fluorescence) was -0.0592.

In the case of TGACAACATGTA, the binding signal (log2 normalized fluorescence) was determined as 0.421.

Turning to TGAGTCGGTGTA, the binding signal (log2 normalized fluorescence) came out at 0.0257.

On to TGAGCTCGGGTA, for which the binding signal (log2 normalized fluorescence) is -0.139.

As for TGAGGGTCAGTA, the binding signal (log2 normalized fluorescence) was found to be 0.0413.

Turning to TGAACCATTGTA, the binding signal (log2 normalized fluorescence) came out at 0.175.

With TGAAATATTGTA, the binding signal (log2 normalized fluorescence) was -0.0137.

With TGAGGTGGGGTA, the binding signal (log2 normalized fluorescence) was 0.453.

As to TGAACAATTGTA, the binding signal (log2 normalized fluorescence) worked out at 0.0107.

Regarding TGAGGTCTAGTA, the binding signal (log2 normalized fluorescence) worked out at 0.0313.

As to TGAAAATATGTA, the binding signal (log2 normalized fluorescence) stood at 0.0359.

In the case of TGAACCTATGTA, the binding signal (log2 normalized fluorescence) is 0.08.

Take TGAAGGTGAGTA: the binding signal (log2 normalized fluorescence) was -0.00294.

Consider TGAACAGTAGTA, for which the binding signal (log2 normalized fluorescence) was -0.0391.

With TGAAGCTCTGTA, the binding signal (log2 normalized fluorescence) was -0.0739.

Consider TGAAATCGGGTA, for which the binding signal (log2 normalized fluorescence) is -0.159.

Consider TGACCCGTGGCT, for which the binding signal (log2 normalized fluorescence) was found to be 0.285.

As for TGAGCGGCTGTA, the binding signal (log2 normalized fluorescence) was -0.0187.

In the case of TGATTGGGAGTA, the binding signal (log2 normalized fluorescence) was -0.194.

Consider TGACGCCGGGTA, for which the binding signal (log2 normalized fluorescence) came to 0.0934.

For the sequence TGAGGAGCTGTA, the binding signal (log2 normalized fluorescence) is -0.188.

In the case of TGAGGAAGAGTA, the binding signal (log2 normalized fluorescence) was -0.245.

Regarding TGAGGTCGTGTA, the binding signal (log2 normalized fluorescence) was 0.121.

Consider TGGTGCGTGGTA, for which the binding signal (log2 normalized fluorescence) came out at 0.373.

For TGAAATCTTGTA, the binding signal (log2 normalized fluorescence) is -0.14.

As to TGAGCCTCTGTA, the binding signal (log2 normalized fluorescence) was -0.03.

For the sequence TGAAGCATAGTA, the binding signal (log2 normalized fluorescence) amounted to 0.127.

In the case of TGACACGTGGTA, the binding signal (log2 normalized fluorescence) is 0.825.

Regarding TGAACAACTGTA, the binding signal (log2 normalized fluorescence) was determined as 0.132.

As to TGATCCCGAGTA, the binding signal (log2 normalized fluorescence) came to 0.0832.

As for TGAGGTGTGGTA, the binding signal (log2 normalized fluorescence) was 0.294.

TGACCGCAGGTA: the binding signal (log2 normalized fluorescence) was 0.143.

With TGATTAAATGTA, the binding signal (log2 normalized fluorescence) was -0.0844.

With TGAGGCGGAGTA, the binding signal (log2 normalized fluorescence) was -0.0527.

For TGAGTCGCAGTA, the binding signal (log2 normalized fluorescence) was 0.00125.

With TGACACAGAGTA, the binding signal (log2 normalized fluorescence) came out at 0.0114.

Regarding TGATGGAGAGTA, the binding signal (log2 normalized fluorescence) worked out at 0.0359.

For TGAGCTGCTGTA, the binding signal (log2 normalized fluorescence) is -0.0108.

As for TGACCCAGGGTA, the binding signal (log2 normalized fluorescence) is -0.0899.

As for TGCCACGTGGTA, the binding signal (log2 normalized fluorescence) is 0.82.

As to TGAGGGGCCGTA, the binding signal (log2 normalized fluorescence) is 0.0961.

Take TGACTGGTGGTA: the binding signal (log2 normalized fluorescence) was found to be 0.126.

Consider TAGGACGTGGTA, for which the binding signal (log2 normalized fluorescence) is 0.294.

Regarding TGACACGCAATA, the binding signal (log2 normalized fluorescence) turned out to be 0.407.
